Measured values taken from the supplement of paper PMC4967469.
pIC50: −log10 of the molar value. Lines with a small IC50 respond at low doses; a limit (>, <) means that the fit lies beyond the doses tested. AUC sums up the same curve from the lowest dose to the 256-fold higher top dose; the more sensitive the line, the further below 1. For some assays here: Where the top dose is marked as inferred, it was calculated from the reported fits. For some assays here: An entry number marks a drug with two screens in the source, which often give different values.

Tests used:
Experiment in all cases: Viability of human cancer cell lines after 72 h of drug (GDSC screen)
Docetaxel = compound: CC(=O)O[C@@]12CO[C@@H]1C[C@H](O)[C@@]1(C)C(=O)[C@H](O)C3=C(C)[C@@H](OC(=O)[C@H](O)[C@@H](NC(=O)OC(C)(C)C)c4ccccc4)C[C@@](O)([C@@H](OC(=O)c4ccccc4)[C@H]21)C3(C)C [Docetaxel]; details: top dose 0.0125 µM
Description: (§1)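 Human cancer cell lines in 384-well plates, medium with 10% serum, drug for 72 h over a 256-fold dose range (nine 2-fold or five 4-fold steps up to the top dose). Adherent lines were fixed and stained with the nucleic acid dye Syto60, suspension lines read with resazurin; signal relative to control wells, capped at 0 and 100%. One two-parameter sigmoid per drug and line, fitted in a mixed model over all curves with the slope shared within a line.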

AMG-706 = compound: CC1(C)CNc2cc(NC(=O)c3cccnc3NCc3ccncc3)ccc21 [AMG-706]; details: top dose 2 µM; top dose inferred
Description: as §1

Cyclopamine = compound: CC1=C2C[C@H]3[C@@H](CC=C4C[C@@H](O)CC[C@@]43C)[C@@H]2CC[C@]12O[C@@H]1C[C@H](C)CN[C@H]1[C@H]2C [Cyclopamine]; details: top dose 16 µM; top dose inferred
Description: as §1

JNK Inhibitor VIII = compound: CCOc1nc(NC(=O)Cc2cc(OC)ccc2OC)cc(N)c1C#N [JNK Inhibitor VIII]; details: top dose 10 µM; top dose inferred
Description: as §1

NSC-207895 = compound: CN1CCN(c2ccc([N+](=O)[O-])c3no[n+]([O-])c23)CC1 [NSC-207895]; details: top dose 20 µM; top dose inferred
Description: as §1

FTI-277 = compound: COC(=O)[C@H](CCSC)NC(=O)c1ccc(NC[C@@H](N)CS)cc1-c1ccccc1 [FTI-277]; details: top dose 1.024 µM; top dose inferred
Description: as §1

YM155 = compound: COCC[n+]1c2c(n(Cc3cnccn3)c1C)C(=O)c1ccccc1C2=O [YM155]; details: top dose 5.12 µM
Description: as §1

OSI-906 = compound: C[C@]1(O)C[C@@H](c2nc(-c3ccc4ccc(-c5ccccc5)nc4c3)c3c(N)nccn32)C1 [OSI-906]; details: top dose 2.56 µM; top dose inferred
Description: as §1

SB-715992 = compound: Cc1ccc(C(=O)N(CCCN)[C@@H](c2nc3cc(Cl)ccc3c(=O)n2Cc2ccccc2)C(C)C)cc1 [SB-715992]; details: top dose 0.128 µM; top dose inferred
Description: as §1

JQ1 = compound: Cc1sc2c(c1C)C(c1ccc(Cl)cc1)=N[C@@H](CC(=O)OC(C)(C)C)c1nnc(C)n1-2 [JQ1]
Description: as §1

Belinostat = compound: O=C(/C=C/c1cccc(S(=O)(=O)Nc2ccccc2)c1)NO [Belinostat]; details: top dose 20 µM; top dose inferred
Description: as §1

CGP-60474 = compound: OCCCNc1cc(-c2ccnc(Nc3cccc(Cl)c3)n2)ccn1 [CGP-60474]; details: top dose 0.256 µM; top dose inferred
Description: as §1

JNJ-26854165 = compound: c1ccc2c(CCNc3ccc(Nc4ccncc4)cc3)c[nH]c2c1 [JNJ-26854165]; details: top dose 10 µM
Description: as §1

[1] = top dose 1 µM, screen: GDSC drug entry 1218, top dose inferred
[2] = top dose 2.56 µM, screen: GDSC drug entry 163

Cell Line | AUC (Docetaxel) | pIC50 (Docetaxel) | AUC (AMG-706) | pIC50 (AMG-706) | AUC (Cyclopamine) | pIC50 (Cyclopamine) | AUC (JNK Inhibitor VIII) | pIC50 (JNK Inhibitor VIII) | AUC (NSC-207895) | pIC50 (NSC-207895) | AUC (FTI-277) | pIC50 (FTI-277) | AUC (YM155) | pIC50 (YM155) | AUC (OSI-906) | pIC50 (OSI-906) | AUC (SB-715992) | pIC50 (SB-715992) | AUC (JQ1; [1]) | pIC50 (JQ1; [1]) | AUC (JQ1; [2]) | pIC50 (JQ1; [2]) | AUC (Belinostat) | pIC50 (Belinostat) | AUC (CGP-60474) | pIC50 (CGP-60474) | AUC (JNJ-26854165) | pIC50 (JNJ-26854165)
ST486 (Burkitt lymphoma, suspension) | 0.954 | < 7.90 | 0.989 | < 5.70 | 0.983 | < 4.80 | 0.989 | < 5.00 | 0.826 | 4.99 | 0.99 | < 5.99 | 0.051 | > 7.70 | 0.962 | < 5.59 | 0.59 | 7.86 | 0.864 | 6.15 | 0.524 | 6.74 | 0.217 | 6.68 | 0.622 | 7.48 | 0.961 | < 5.00
Ramos-2G6-4C10 (Burkitt lymphoma, suspension) | 0.76 | 8.42 | 0.991 | < 5.70 | 0.977 | < 4.80 | 0.99 | < 5.00 | 0.93 | < 4.70 | 0.99 | < 5.99 | 0.017 | > 7.70 | 0.986 | < 5.59 | 0.668 | 7.66 | 0.901 | 6.01 | 0.773 | 6.07 | 0.228 | 6.63 | 0.673 | 7.35 | 0.884 | 5.09
SHP-77 (small cell lung carcinoma, semi-adherent) | 0.963 | < 7.90 | 0.983 | < 5.70 | 0.976 | < 4.80 | 0.982 | < 5.00 | 0.948 | < 4.70 | 0.99 | < 5.99 | 0.715 | 5.92 | 0.99 | < 5.59 | 0.796 | 7.28 | 0.991 | < 6.00 | 0.894 | 5.60 | 0.361 | 6.27 | 0.808 | 6.94 | 0.903 | < 5.00
NCI-H1155 (large cell lung carcinoma, suspension) | 0.955 | < 7.90 | 0.987 | < 5.70 | 0.993 | < 4.80 | 0.986 | < 5.00 | 0.982 | < 4.70 | 0.993 | < 5.99 | 0.155 | 7.43 | 0.993 | < 5.59 | 0.889 | 7.00 | 0.993 | < 6.00 | 0.928 | < 5.59 | 0.373 | 6.22 | 0.904 | 6.63 | 0.906 | 5.03
D-263MG (glioma, adherent) | 0.598 | 8.81 | 0.899 | < 5.70 | 0.976 | < 4.80 | 0.982 | < 5.00 | 0.982 | < 4.70 | 0.982 | < 5.99 | 0.144 | > 7.70 | 0.983 | < 5.59 | 0.979 | < 6.89 | 0.981 | < 6.00 | 0.975 | < 5.59 | 0.611 | 5.57 | 0.855 | < 6.59 | 0.874 | < 5.00
NCI-H446 (small cell lung carcinoma, semi-adherent) | 0.815 | 8.13 | 0.984 | < 5.70 | 0.956 | < 4.80 | 0.985 | < 5.00 | 0.834 | 4.84 | 0.983 | < 5.99 | 0.029 | > 7.70 | 0.986 | < 5.59 | 0.695 | 7.53 | 0.964 | < 6.00 | 0.751 | 6.05 | 0.276 | 6.56 | 0.849 | 6.67 | 0.986 | < 5.00
WIL2-NS (lymphoid neoplasm, suspension) | 0.933 | < 7.90 | 0.992 | < 5.70 | 0.805 | 5.20 | 0.992 | < 5.00 | 0.929 | < 4.70 | 0.992 | < 5.99 | 0.014 | > 7.70 | 0.992 | < 5.59 | 0.62 | 7.80 | 0.985 | < 6.00 | 0.553 | 6.66 | 0.033 | > 7.11 | 0.682 | 7.34 | 0.984 | < 5.00
L-428 (Hodgkin lymphoma, suspension) | 0.993 | < 7.90 | 0.991 | < 5.70 | 0.982 | < 4.80 | 0.987 | < 5.00 | 0.987 | < 4.70 | 0.98 | < 5.99 | 0.989 | < 5.29 | 0.988 | < 5.59 | 0.851 | 7.09 | 0.979 | < 6.00 | 0.914 | < 5.59 | 0.991 | < 4.70 | 0.818 | 6.91 | 0.992 | < 5.00
CCRF-CEM (lymphoblastic leukaemia, suspension) | 0.776 | 8.38 | 0.977 | < 5.70 | 0.987 | < 4.80 | 0.977 | < 5.00 | 0.873 | 4.85 | 0.988 | < 5.99 | 0.055 | > 7.70 | 0.976 | < 5.59 | 0.66 | 7.69 | 0.871 | 6.16 | 0.601 | 6.54 | 0.142 | 6.90 | 0.684 | 7.32 | 0.752 | 5.55
NCI-H1304 (small cell lung carcinoma, suspension) | 0.987 | < 7.90 | 0.955 | < 5.70 | 0.988 | < 4.80 | 0.955 | < 5.00 | 0.985 | < 4.70 | 0.98 | < 5.99 | 0.234 | 7.30 | 0.919 | < 5.59 | 0.886 | < 6.89 | 0.98 | < 6.00 | 0.752 | 6.04 | 0.746 | 5.17 | 0.793 | 6.90 | 0.878 | < 5.00
SU-DHL-4 (B-cell lymphoma, suspension) | 0.997 | < 7.90 | 0.997 | < 5.70 | 0.89 | 5.02 | 0.997 | < 5.00 | 0.986 | < 4.70 | 0.996 | < 5.99 | 0.006 | > 7.70 | 0.997 | < 5.59 | 0.676 | 7.67 | 0.997 | < 6.00 | 0.96 | < 5.59 | 0.152 | 6.76 | 0.58 | 7.60 | 0.997 | < 5.00
RKO (large intestine, adherent) | 0.583 | 8.89 | 0.988 | < 5.70 | 0.977 | < 4.80 | 0.976 | < 5.00 | 0.922 | < 4.70 | 0.988 | < 5.99 | 0.031 | > 7.70 | 0.981 | < 5.59 | 0.629 | 7.75 | 0.987 | < 6.00 | 0.31 | 7.31 | 0.35 | 6.30 | 0.719 | 7.20 | 0.914 | < 5.00
SU-DHL-6 (B-cell lymphoma, suspension) | 0.743 | 8.51 | 0.995 | < 5.70 | 0.871 | 5.05 | 0.995 | < 5.00 | 0.903 | 4.85 | 0.995 | < 5.99 | 0.008 | > 7.70 | 0.989 | < 5.59 | 0.521 | 8.05 | 0.913 | 6.11 | 0.593 | 6.57 | 0.058 | > 7.11 | 0.556 | 7.66 | 0.886 | 5.21
AMO-1 (haematopoietic neoplasm, suspension) | 0.758 | 8.42 | 0.991 | < 5.70 | 0.984 | < 4.80 | 0.991 | < 5.00 | 0.963 | < 4.70 | 0.987 | < 5.99 | 0.019 | > 7.70 | 0.803 | 5.97 | 0.658 | 7.69 | 0.983 | < 6.00 | 0.738 | 6.17 | 0.201 | 6.71 | 0.695 | 7.29 | 0.81 | 5.36
MRK-nu-1 (breast, suspension) | 0.977 | < 7.90 | 0.99 | < 5.70 | 0.968 | < 4.80 | 0.99 | < 5.00 | 0.798 | 5.06 | 0.988 | < 5.99 | 0.065 | > 7.70 | 0.99 | < 5.59 | 0.896 | < 6.89 | 0.989 | < 6.00 | 0.87 | 5.69 | 0.675 | 5.44 | 0.61 | 7.51 | 0.916 | < 5.00
ML-2 (acute myeloid leukaemia, suspension) | 0.939 | < 7.90 | 0.978 | < 5.70 | 0.889 | 4.83 | 0.977 | < 5.00 | 0.84 | 4.93 | 0.989 | < 5.99 | 0.034 | > 7.70 | 0.522 | 6.74 | 0.598 | 7.84 | 0.98 | < 6.00 | 0.664 | 6.37 | 0.453 | 6.02 | 0.795 | 6.98 | 0.959 | < 5.00
OMC-1 (cervix, adherent) | 0.854 | 7.97 | 0.986 | < 5.70 | 0.988 | < 4.80 | 0.988 | < 5.00 | 0.951 | < 4.70 | 0.975 | < 5.99 | 0.074 | > 7.70 | 0.986 | < 5.59 | 0.935 | < 6.89 | 0.925 | < 6.00 | 0.863 | 5.63 | 0.471 | 5.98 | 0.767 | 7.00 | 0.932 | < 5.00
